Variants at the background level are over-represented here.
B1: TPR 5TU (parent)
chain: GGAUCUUCUCGAUCUAACAAAAAAGACAAAUCUGCCACAAAGCUUGAGAGCAUCUUCGGAUGCAGAGGCGGCAGCCUUCGGUGGCGCGAUAGCGCCAACGUUCUCAACUAUGACACGCAAAACGCGUGCUCCGUUGAAUGGAGUUUAUCAUG

Variants of: B1
Experiment: polymerase ribozyme fitness, log enrichment relative to wild type (log ratio); higher = more active; in vitro selection for triplet polymerase activity
Summary of the method: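 A heterodimeric triplet polymerase ribozyme had each of its subunits mutagenized by PCR into a library, which was transcribed. One round of in vitro selection, done in triplicate, annealed each library with a biotinylated primer, its partner subunit and triplets, then incubated it frozen at −7 °C before gel excision of extended constructs, streptavidin-bead capture and RT-PCR. Fitness is the logarithm of genotype enrichment relative to wild-type enrichment, based on Illumina sequencing of inputs and outputs and inverse-variance-weighted replicate averages. A base-2 logarithm is used, and genotypes were kept only with ≥10 input reads and ≥1 read per output.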

| Variant | polymerase ribozyme fitness (log ratio) |
| --- | --- |
| A20G G68A G81A A98C G141C U145A U151C | ≤ -4.2 |
| A20C U55G G67U C72A C85U | ≤ -4.2 |
| A20G A30G A41C C51A G143U | ≤ -4.2 |
| A20U C32G U44G U45C G86A U144G U148C A150U | ≤ -4.2 |
| A20C A47C G50C G84A C93A U148A | ≤ -4.2 |
| A20U A37C G58A A91G C93G A142C | ≤ -4.2 |
| A20C C85A A97U | -3.02 |
| A20C G84U C99G A106U | ≤ -4.2 |
| A20C C43G U53A G74A G84U A107U U109G A150U | ≤ -4.2 |
| A20U A23U C51A A122G G126A C129A U139G | ≤ -4.2 |
| A20G C54A G92A C105U U145A C149A | ≤ -4.2 |
| A20C C105G A115U G140U | ≤ -4.2 |
| A20G A29G U44A A47U G58U G124A | ≤ -4.2 |
| A20U C125A | -2.05 |
| A20U C87A | ≤ -4.2 |
| A20G A41C G46C U82C C95A C123U | ≤ -4.2 |
| A20U C27G A30U A37U A60C C76A G88A G94A C99G | ≤ -4.2 |
| A20U A21C A40C A98G A107G A119U | ≤ -4.2 |
| A20U A30C G86U G140U | ≤ -4.2 |
| A20U A22U A52C G67A U127A | ≤ -4.2 |
| A20U A29G G46C G50C A66U G83A | ≤ -4.2 |

| Variant | polymerase ribozyme fitness (log ratio) |
| --- | --- |
| A20G A52C | -1.28 |
| A20G A30U C63A C87U U146C | ≤ -4.2 |
| A20U A60U G68C C76A C96A G100A U145A U151C | ≤ -4.2 |
| A20C G100U U104G A142G | ≤ -4.2 |
| A20U A39U C51G A66C C93G U134A | ≤ -4.2 |
| A20G C85G | -2.92 |
| A20G A21U G59C C69A A98G U109A | ≤ -4.2 |
| A20U A52C C54U G88U A107U C116A | ≤ -4.2 |
| A20U C38U C75A C87G A107U C132U | ≤ -4.2 |
| A20U C38A G100U G124C G133U C149A | ≤ -4.2 |
| A20G G25C G58C A106U | -3.93 |
| A20C A98U | -1.29 |
| A20U A21C U102A C125G | -3.5 |
| A20G C87U U148A | -3.21 |
| A20C U101G C149U | -1.64 |
| A20G A23C U144G | ≤ -4.2 |
| A20U C93G C103A A113G C114G G140U | ≤ -4.2 |
| A20U A28U A64C C79U C93A C114U | ≤ -4.2 |
| A20C G133A | ≤ -4.2 |
| A20G C35U G59C C75A A142U G143A | ≤ -4.2 |
| A20C A89G C95U A106U C116U A138C | ≤ -4.2 |

| Variant | polymerase ribozyme fitness (log ratio) |
| --- | --- |
| A20U A30C C72U A91G G92A U146C | ≤ -4.2 |
| A20C A52U C93U C95A C96A U109A C125U | ≤ -4.2 |
| A20U G48C A60C C85A U148G | ≤ -4.2 |
| A20U A89C U109C | ≤ -4.2 |
| A20U C54A A66U U77C C116G C125A U148C | ≤ -4.2 |
| A20C C103A A107G C149G | ≤ -4.2 |
| A20U A29U U53A C95U A147U U148G | ≤ -4.2 |
| A20C A26G C38G A52C C54A C87U C93U | ≤ -4.2 |
| A20G G83A C129G | -3.83 |
| A20C A39C A40G G84U G88U C93A C96A | ≤ -4.2 |
| A20U C32G A39U A41C G70A C87U A122C G136C | ≤ -4.2 |
| A20G C76A C99A U109A G141U | ≤ -4.2 |
| A20C C54U G86C U101C U104A | ≤ -4.2 |
| A20C C38G U61G G62U C87G A97G A110U | ≤ -4.2 |
| A20U C76A C93A U101C U104G G141C C149G G152C | ≤ -4.2 |
| A20G G58C U77G A98U G100A U139G | ≤ -4.2 |
| A20G C54U A60U C85A | -3.42 |
| A20U A21G C51U G133C | ≤ -4.2 |
| A20G C57A A66C G88A A121C A147C | ≤ -4.2 |
| A20C U56A A107U | -2.71 |
| A20G U55A C96A U104G | -2.4 |

| Variant | polymerase ribozyme fitness (log ratio) |
| --- | --- |
| A20C A120G | -0.986 |
| A20G A29G U111C | ≤ -4.2 |
| A20U A49C G58C C87U | ≤ -4.2 |
| A20G C32G U56A U78A C85A C108A | ≤ -4.2 |
| A20G C32A C51G C85A C118U U144A | ≤ -4.2 |
| A20U A113C G133C | ≤ -4.2 |
| A20G A21G C79U C93A A98G C103U | ≤ -4.2 |
| A20U A29U G71U G84A | ≤ -4.2 |
| A20U A22U A24U C51G C75G G84U A91U C108A | ≤ -4.2 |
| A20C U45G C72A A73C A97U A119U | ≤ -4.2 |
| A20G G124U | -0.645 |
| A20G U33C C87U A89G U151G | ≤ -4.2 |
| A20C A24G | -4.02 |
| A20C G50A A60G U61G C87A | ≤ -4.2 |
| A20U A52G C54A G80U A110U | ≤ -4.2 |
| A20C C87A C116U | ≤ -4.2 |
| A20G A26G A47C G80A C87A C93G | ≤ -4.2 |
| A20C A49C G88C U127A | ≤ -4.2 |
| A20U A39G C54G U61C C132A | ≤ -4.2 |
| A20G C27G A29U A97G A120G U146G | -4.06 |
